Test results taken from the supplement of paper PMC11417369.
Some of the results follow.

test system: PF3D7_0420300 AP2 domain 1 (GST-tagged); assay: gcPBM binding intensity (ln(normalized median fluorescence intensity)); higher = stronger DNA binding
Procedure, shortened: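 Probes on an Agilent 4 × 180k array were primer-extended, double-stranded and 36 bp long, taken from intergenic genomic regions, with negative controls added. GST-tagged P. falciparum DNA-binding domains from E. coli, about 25 μg on average, were applied to the array for 1 h in 1× PBS containing 1% milk, 0.2 mg/ml BSA, 0.5% salmon testes DNA and 0.03% Triton X-100. Binding intensity, obtained after Alexa488 anti-GST antibody detection and a 488 nm scan, is the highest Masliner-normalised natural-log median intensity across replicate spots of either probe orientation.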

Sequence	gcPBM binding intensity (ln)
TTTTTTTTATTTTAATGTACATTTTTTATTTGTTAT [XGTACX_site7189]	9.46
TGATACTTTTTTTGTAGTACTCCTAAAATTATAAAA [XGTACX_site4340]	8.93
ATATATATATTATTTCGTACATAATTATTTGCCTTA [XGTACX_site350]	9.31
AAAAAAAAAAAAAATTGTACAAAAAAAATAAATAAA [XGTACX_site6816]	9.29
AAAAAAAAAAAAGAAACACACATATTTATATTTATA [CACACA_site6213]	9.32
TATTTATTCACTTATTGTACTTATATATATAATAAA [XGTACX_site6147]	9.26
ATTTTTTTTTGTTTAATGTTATGTGGTCATTAAATT [CACACA_negctrl_site1177]	9.39
AAATTAAAAGAAAATACACACCTGTGGGTGCTTATA [CACACA_site5143]	9.18
AATTAACCGAAACACACACACATATATATATATATA [CACACA_site3963]	9.71
ATATATTTTTTTTAGCGTACATGCAAAAAAAAAAAA [XGTACX_site4590]	8.82
TCATAAATTAAACACACACACACATCTGGATACCCC [CACACA_site9096]	10.3
TTTTGTTGTTGTTGTTGTACATAAATAATAAAATAT [XGTACX_site8681]	9.23
TATACACACAGACATGCATGCACATATATATATACA [TGCATGCA_site30]	9.62
TATACACTTGTAATAACACACATTATTTTTTTTTTT [CACACA_site1324]	9.46
ATAAAAAATTTAAGTATTTTTTACAAACCTATAAAT [GTGCAC_negctrl_site51]	9.02
TTATATTTATATGTAATACAAAATAACAAAAAATTT [CACACA_negctrl_site1721]	8.95
TATATATATATATCCACACACATACATATATTAATA [CACACA_site69]	9.71
TTGGTAATTTTAAAATGTACTTATTATATATATATA [XGTACX_site5642]	9.13
AATATATATACTTTTTTTTTTTTTTTTTTTTTTTTT [CACACA_negctrl_site520]	9.33
TATGTTTACATATACGTGCACATGAATGTATACATT [GTGCAC_site9894]	9.15
ACAAATTGTTAAAGGTGTACAATACATATATAAGAA [XGTACX_site4906]	9.48
TTTAGCACAAACAAAAAAAAAATAGAAAAAAATATA [CACACA_negctrl_site1772]	9.27
TATATACAGAATATATGTACATATTCATTTTATATT [XGTACX_site5139]	9.21

Sequence	gcPBM binding intensity (ln)
AAATAAAAAATGGAAATCTTAACAAGAATCATTAAC [CACACA_negctrl_site1626]	9.37
AAAAAATAAATAAATAGTACTTTAAAAGAAAAAAAA [XGTACX_site5051]	9.23
CAATGTTACTATAATACACACAATATGTATTTGTCT [CACACA_site6668]	9.56
AAAGAAAACCAAGTGGTGCATTTTCGTTACTTCATC	9.32
TTGTTTAACTTGTTAAATATAATGTATCTGTGGATA [GTGCAC_negctrl_site108]	9.03
CATATTTTGAACTTCACACATATATATATATATATA [CACACA_site4228]	9.18
GGTAGATTATTATTAACGAAAAATGTTTTTAACATA [GTGCAC_negctrl_site216]	8.89
AATAATTGTAGACATGCACACACAAATATTATATAT [CACACA_site8181]	9.73
CCTTTCTATTGAAAATGTACATATATATTATTATAT [XGTACX_site5527]	9.22
AATAATTGTTATAGTTGTACAATACATATATTACAA [XGTACX_site30]	9.19
TGTATATATAAAAATATACACACTGTATTATTGTAA [CACACA_site3757]	9.21
TATAAAGACACGTACACACACTAAGTATATCCAATA [CACACA_site6855]	9.95
GTATGATGTGAACATTGTACGAATGAATATATCTAA [XGTACX_site3789]	9.04
ATATAAGTATACACATGTACATATTTCTTATGTATA [XGTACX_site2854]	9.32
AAAAAATTTATAAAAGCACACAAAATAAAAAAAAAT [CACACA_site8420]	9.63
AAAATGTTAAATATTAAATATGAAACAAAAAAAAAA [GTGCAC_negctrl_site211]	9.21
TATAATTTAAAATACACACACATATATATAATATAT [CACACA_site2000]	9.9
TCCAAATGAAAAAATTGTACATATTTTATCATATAT [XGTACX_site6159]	8.94
TAAATACATTTATATACACACCTATATATATATATA [CACACA_site5137]	9.36
ATAAGAAATTTCATACGTACATAAATAAATATATAT [XGTACX_site2932]	9.22
TAAAAAAAAGGAAATACATGCATCTACATATATATA [TGCATGCA_site500]	9.2
AAAAACTAACTGTATTGTACTCTCTTATAAATTCAC [XGTACX_site8967]	9.15
ATATATTTCATTTTTGTACACACAACGTTGGAGGGT [CACACA_site8999]	9.5

Sequence	gcPBM binding intensity (ln)
AAAAAAAAAATATATATATATATATAATATATATAT [TGCATGCA_negctrl_site329]	8.82
ATATAGGTAATAATAATACACACGGTGAAATATAGA [CACACA_site4040]	9.7
GACAATATTAAAACATGTACATGCATTTTATGAATA [XGTACX_site553]	9.08
TATAATATAAAATATGCACACATTGGAATGGGAGAA [CACACA_site3746]	9.72
TATTGTAAAGTGTCATTATTACGTTATATTATATAT [CACACA_negctrl_site98]	9.35
TTATAAAATATATATACATGCACAAAATTATAAGTA [TGCATGCA_site294]	9.46
AATCAACATTTTTTTTGCTATTTTTTTTTTTAATTA [CACACA_negctrl_site891]	9.34
AAAAAAACATAAAATACACACAACCTTAAGAATGTA [CACACA_site3293]	9.81
TTTCATTTTTGAAGGTGTACTTAAAATTTATGTAAT [XGTACX_site6671]	8.98
AAAATTTATTATCTATATAATAATATGAAACAAAAC [GTGCAC_negctrl_site731]	9.41
ATGAAAAAAAGACATGCATGTAAATATAAATTGCTT [TGCATGCA_site504]	9.49
CTCATTTTGTTAATGGTGCAAAAAAAAAAAAAAAAA	8.51
CATTATAAGAGACACACACACATATATAAATATGTA [CACACA_site6621]	9.92
AGTAAGAGGCATTAAGCATGCATATTATTATAAGCA [TGCATGCA_site237]	9.42
TATTTAAAACTATACACATGCATTATATAAAGATAT [TGCATGCA_site702]	9.29
ATAAAATCAAAATATACACACAAGGGGGAAAATCAA [CACACA_site2809]	9.93
ATAGGACATGTATCCAGTACATATTTAAAAAAAATA [XGTACX_site88]	9.1
GCATATATCAAATATCGTACATTTTTTAAATTAAAA [XGTACX_site3994]	8.94
TTTGTAAGTCTTTGTTGTACTCAATAGAATGAAGAA [XGTACX_site8930]	8.87
TTTTCTTTTTTTTATTGTACTTATAAAAATAAATAA [XGTACX_site3498]	8.91
TACTTATGTGCATACCTACACACTTACATATATATA [CACACA_site2975]	9.69
GATGATGTTTATTTGTGTACATATTAATACTTAATA [XGTACX_site1902]	9.49
AAAAAAAGAATGTGAACACACACATTGAATATAATT [CACACA_site8341]	9.66

Sequence	gcPBM binding intensity (ln)
AAGAACAGAACGTACACACACATATATATATATATA [CACACA_site3457]	9.8
AATTATTTACCCTATACACACAAAACCCACTAAAAA [CACACA_site4801]	9.87
TATAAATAAATACATACACACACATACATATATATA [CACACA_site9024]	9.88
AATCATATGAAAAATACATGCGCATGGATACCTTTA [TGCATGCA_site224]	9.44
AAAAAAAAAAAAAAGGTGCAAATAAATTAACCTTAT	9.16
TTTTATTTTTTCCGACGTACATCCATTATATATAAT [XGTACX_site4469]	9.48
AAATGTTAAAATGACAGTACATATATAAAAAAAAAA [XGTACX_site3936]	9.34
AAATATTTGGAGAAATGTACATATTATAAATATATT [XGTACX_site6885]	9.27
CTAGGAAATTATATGGGTACTCATATTCATAAAAAA [XGTACX_site1846]	8.92
TAAAAAAAATAGCATACACACATATATACATATATA [CACACA_site658]	9.56
GTCGCCAAAAGGTGTACACATAATGCATTATCATAA [CACACA_site6112]	9.29
TACACATAATATAATGCATGTGTGATGTATGTTTAA [TGCATGCA_site697]	9.37
ATTAAAAAATTATTCACACAAAATAAAAAAATGAAA [CACACA_site4918]	9.37
ATATTTAGGATTATCTGTACATAATATGTTTAATTA [XGTACX_site3426]	9.21
AAAATTATTTTTATGTGTACTTATTTATTATTTATA [XGTACX_site6665]	9.25
TTGTATTCCTTTTACAACTACCATGAAGAGAATTTT [CACACA_negctrl_site1286]	9.01
AAAAAAAAAAAGTACACACATACATATAAATATATA [CACACA_site1809]	9.46
AAAGACGCAAAATTGGTGCGCTGCTTTTAGCATTTT	9.12
ACAGAATATTTAATTCAACACACATACATATTTATT [CACACA_site8734]	9.52
ATTTATATCCTTAAACGTACATTGTATTGTATTTTA [XGTACX_site6080]	9.4
